This note sets out measurements from the RNAGym collection of RNA variant scans (doi:10.7554/elife.90254).

Sequences and labels used below:
B1: LINE1-mini (parent)
chain: GGCAGAGCUCAACACAGCGUGGCAAAGUGGCUGUGGCUAGACUGCC

Read counts are not given, so values of variants with three or more changes are uncertain.

The data set covers variants of B1. In words: self-cleavage, relative activity (ratio to wild type); higher = more cleavage; in vitro, sequencing; the parent is a self-cleaving ribozyme.
For the variant C23A A25U A26U C42A, the self-cleavage amounted to 0.02.
Next, G22C A26U C46A: 0.23; G21U A26U C37G C42A U43G: 0.04; G21U U34A A39U C45U: 0.2.
With U20G G33U C45A the figure was 0.05; with U20C G22U U32A, 0.05.
With G21U G29A G40U the figure was 0.11.
On to G22U C23G A39G, for which the self-cleavage worked out at 0.1.
Next, U20C G21U U32C C45A: 0.58.
With G21U G33U A41G the figure was 0.02.
With U20C G29U C31U the figure was 0.94; with G21A U28A U32G, 0.02; with G21U U32A G36A A39U C45A, 0.17.
For G22U U28G G35C, the self-cleavage was 0.26.
On to G22C C23U G44U, for which the self-cleavage turned out to be 0.92.
With G21A G27C G36U the figure was 0.01.
On to U20G G30A G40A, for which the self-cleavage is 0.02.
Next, U20G G30A C37G: 0.08; G21U G27U C31G G35U U38A: 0.17; U20C G22U A24G G36U: 0.05.
For U20C G22A A41U C42G, the self-cleavage amounted to 0.08.
With G22C C45A C46A the figure was 0.14; with G21C G27C A39G, 0.09; with U20G A24C U38A, 0.29.
G21U G22A G36A: the self-cleavage worked out at 0.13.
With G22A A26U G27C G40U the figure was 0.51; with G22U G27U U43G, 0.
With G22U U38G A39U the figure was 0.05; with G22U G27U U28C C42A U43A, 0.25; with U20C G36C A39C, 0.12.
Next, G21U C37U C45A: 0.02.
As for G21A G22U G27A C37A A41G, the self-cleavage was 0.02.
As to G22C U28A U43G C45U, the self-cleavage was found to be 0.04.
In the case of G22U C37G G40U, the self-cleavage turned out to be 0.06.
Turning to G22A G27U G33U G35U, the self-cleavage was found to be 0.08.
With U20C G30A U43G the figure was 0; with U20G G27U G36C, 0.31; with G22A C31A A39C, 0.02.
With U20C G30U G35C A39C the figure was 0.02; with C23A A25U A39U, 0.58; with U20G C37A C46U, 0.03.
In the case of G22A A25C G33A, the self-cleavage came to 0.17.
On to G22C C23A A24U G44U, for which the self-cleavage is 1.37.
Next, G22C A26G G30U C45A: 0.19; U20C G21U G22C A24U G30A U38G G44U: 0.01.
In the case of U20G G21A G36C C37G, the self-cleavage was 0.04.
Next, G22C A24G A25U G35C C46U: 0.01; G22A U38G A41U: 0.01.
With U20G A26C A41G the figure was 0.09; with U20C C37U G40U, 0.06.
With G22A G29C G33A C46G the figure was 0.81; with G21U C42G U43C G44U, 0.02.
With C23A A25C A41C G44A, the self-cleavage turned out to be 0.06.
As to G21C G35C U43C, the self-cleavage is 0.05.
With G22U A26C C45A the figure was 1.1; with G21A A24G C37G, 0.03.
Next, G22C A25U G30A G40A: 0.05.
Next, U20G A41C U43G: 0.02; G22C G33A G40A: 0.06; G21U G33A C42A: 0.11.
As to C23A A24G A26C G36C G40U, the self-cleavage worked out at 0.08.
With G21U G27U G30C the figure was 2.7.
As for U20C G27A U28A C37A, the self-cleavage worked out at 0.02.
Consider G21U A24U G44U, for which the self-cleavage was found to be 0.68.
Next, G21A G22C U32A A41U C42U U43C C46A: 0.05; G21A G22A A39G: 0.02.
Consider G22U U32C U43A C45G C46A, for which the self-cleavage was found to be 0.01.
Take U20G A25U G29A C37A: the self-cleavage was determined as 0.02.
Next, G21C U34C A39U: 0.01; G21C G33C C42U: 0.03.
With G21U U34A C46A the figure was 0.08.
With U20G C31A G33C the figure was 0.07.
On to G22C U28A G40U, for which the self-cleavage came to 0.06.
With G21U G30U G33A U38G the figure was 0.01; with G22A G35A U38G A39G U43A C45U, 0.01; with U20C G22C U38C C46G, 0.05.
Regarding G21U C31A C37A, the self-cleavage amounted to 0.25.
Next, G22C A25C G29A G33U U38A: 0.04; U20C G21C G30C C31G: 0.12; G21A A24G G36A C42U: 0.12.
Next, G22C G30U G35C U43C: 0.02.
As for G21A G30C U43G, the self-cleavage was found to be 0.
Take U20G C37U U43C: the self-cleavage was found to be 0.01.
As for G21U G33C G35U, the self-cleavage turned out to be 0.06.
With U20G U38A G44U the figure was 0.08.
With G21C C31U G44U the figure was 0.03; with G21U G22U C23U, 0.9; with U20G G21A U38G, 0.01.
For G21U C23U A24U U28C, the self-cleavage was determined as 0.83.
Next, G22C C23U G40A: 0.19; G22C G44A C46A: 0.02; G21U C31G C37U: 0.06.
Next, U20G A25C G30A: 0.09; G22C G30C G44A: 0.18.
With G21U G30U C31A G40U G44A the figure was 0.06.
For G21A C42U G44A, the self-cleavage came out at 0.18.
As to G21A C23A G36U A39G, the self-cleavage stood at 0.
On to G22A G27A U28C G29U, for which the self-cleavage came out at 0.23.
Next, G22C G30C U38A: 0.72.
As to G21A U28G C31G, the self-cleavage was determined as 0.03.
Next, G22U G33A C37G: 0.03; U20G G29U G40U: 0.05; G22A A25U G27A U34A U43C C45A: 0.04.
With G22U C31G U34A the figure was 0.03.
With U20C U28G C45G, the self-cleavage was found to be 0.03.
On to G21A G40U A41G C45U, for which the self-cleavage amounted to 0.02.
With G21U C23A C37U the figure was 0.01; with G21U G33U C45U, 0.13; with U20C G30U C45U C46G, 0.14.
Turning to G21U G22A G35C, the self-cleavage is 0.14.
Next, G21A G30A C42U C45U: 0.48.
For C23A A25C G36U G44C, the self-cleavage worked out at 0.06.
With G22U A25U G30C C42G C46A the figure was 0.06; with G22U G30A C42G, 0.07; with G21C C23U U34G G40C, 0.02.
Regarding G22C C45U C46U, the self-cleavage was determined as 0.21.
Next, G21U A24U G40U: 0.04; U20G G30A U34G: 0.06.
With G22U C23U C31A the figure was 0.54; with G21U A24G U34G G35A G36A, 0.25.
On to U20G G27U U28G U43A, for which the self-cleavage is 0.02.
Next, G21U G22A G40U: 0.05.
With G22U A41G U43A the figure was 0.02.
With U20C G27C G33A A41U the figure was 0.03; with G22U G30A G35A G36U A41C, 0.03.
For G21A G27C G40A U43A G44A, the self-cleavage is 0.04.
As for G22C A25C U34C, the self-cleavage is 0.03.
On to G21A G27C G33A, for which the self-cleavage stood at 0.09.
Take G21A G29A U32A: the self-cleavage was found to be 0.23.
Next, U20G C23U A26G C42U: 0.14; G21A G29A C37A C45A: 0.1.
With U20C C42A U43G the figure was 0.02; with U20C U38A C42U, 0.23.
Take G22C G27U G30A: the self-cleavage came out at 1.12.
With G21U C31A G33A U43A G44A the figure was 0.01.
With G22C G36C A39G, the self-cleavage was found to be 0.09.
As for U20C G27U G35A, the self-cleavage turned out to be 0.1.
Next, G22C C37U A41C C45G: 0; G22A U34C C42A: 0.04; G22U G27C U28C G35A C42A: 0.02.
U20G U28A U32G A41U G44A: the self-cleavage came to 0.02.
U20C C37A U43A: the self-cleavage worked out at 0.02.
Next, G22U G27C G33C: 0.05; G22C U32C C37U: 0.01; G22A C31U U34A G40A: 0.05.
With G22C C37A G40A the figure was 0.33.
G21U C37G G40C C46A: the self-cleavage amounted to 0.03.
With G22U A25U U28C G36C the figure was 0.16.
With G21U U28G C42G, the self-cleavage was determined as 0.03.
For G21C A25G G27C, the self-cleavage was determined as 0.14.
Next, U20C U32A C42U: 0.04; G21C G22C U38G C42A: 0.01; G22U A24G G30U: 1.21.
For G21C G33U C46U, the self-cleavage was 0.01.
Consider G21A A25C C45U, for which the self-cleavage came out at 2.64.
With G21C G27C C31G the figure was 0.05; with U20G C31U C37G U43G, 0; with G21U U28G A41U, 0.28.
With U20G G29U C31A G40A, the self-cleavage amounted to 0.03.
With G22U G29C C42U the figure was 0.08; with U20G U32G G40A, 0.03.
Next, G21U G22U A39G: 0.07; G21C A25C U34A: 0.18.
Next, G22C C31A A41C G44C: 0.1; G22U U28C G36U C37U: 0.03; G21C G30C G33U: 0.25.
Regarding G21U G22C A39C G44C, the self-cleavage came out at 0.08.
